Among the data in PubChem BioAssay AID485344 (National Center for Advancing Translational Sciences (NCATS), 2010) are inhibition values, retold here.

The structures appear in SMILES notation. The whole screen tested about 340,000 compounds, of which about 6,900 (2%) were called active. No stated cut-off is given here; in the data, active means inhibition above about 30%; inactive means below that, where a call was filed. The entries are a selection whose mix differs from that of the whole data set. Entries without a call were filed so in the source.

Sequence of UniProt P14416 (P14416 whole entry, looked up): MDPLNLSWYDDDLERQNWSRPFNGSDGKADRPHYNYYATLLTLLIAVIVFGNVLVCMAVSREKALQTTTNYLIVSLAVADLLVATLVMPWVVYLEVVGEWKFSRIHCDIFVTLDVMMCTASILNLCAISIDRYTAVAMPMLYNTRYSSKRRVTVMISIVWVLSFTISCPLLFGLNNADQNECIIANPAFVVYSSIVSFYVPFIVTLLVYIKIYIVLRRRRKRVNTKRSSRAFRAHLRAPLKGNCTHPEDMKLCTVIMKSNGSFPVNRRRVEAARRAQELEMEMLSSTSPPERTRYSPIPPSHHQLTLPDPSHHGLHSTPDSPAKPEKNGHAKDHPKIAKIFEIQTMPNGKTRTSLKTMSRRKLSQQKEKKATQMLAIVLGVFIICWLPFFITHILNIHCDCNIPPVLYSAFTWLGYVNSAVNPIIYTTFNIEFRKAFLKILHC

This experiment concerns the target D(2) dopamine receptor (Homo sapiens) (UniProt P14416). In words: HTS Assay for Allosteric Antagonists of the Human D2 Dopamine Receptor: Primary Screen for Antagonists. Further: 0% is about no effect. The settings on record: HEK293 TREx D2 cells, calcium flux, dopamine EC80; at 10 µM; stronger effect = higher value. The procedure, abridged:
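Tetracycline-induced HEK293 T-REx cells expressing D2 force-coupled to calcium signalling were dye-loaded, exposed to compound for 180 s, then challenged with an EC80 of dopamine; calcium flux was followed kinetically for a further 180 s.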
Turning to `Cc1nn2c(=O)cc(COC(=O)c3cccc(NC(=O)COc4ccccc4Cl)c3)nc2s1`, the inhibition amounted to 10.3%.
As for `Cc1ccc(C(=O)c2cn(Cc3cccc(C)c3)c3nc(C)ccc3c2=O)cc1`, the inhibition stood at 4.2%.
Take `O=C(C[n+]1ccccc1)N/N=C/c1cc(Br)ccc1O`: the inhibition is active: 36.4%.
Under `COc1ccc(NC(=O)Cn2c(=O)n(-c3ccccc3)c(=O)c3c4c(sc32)CCCC4)c(OC)c1` stands 22.7%; under `Cc1ccc(NC(=O)CSc2ncc(S(=O)(=O)c3ccc(C(C)C)cc3)c(=O)[nH]2)cc1C`, 12.8%.
In the case of `CC(C)Oc1ccc(CNS(=O)(=O)c2ccc3c(c2)C(C)(C)C(=O)N3C)cc1`, the inhibition was -1.76%.
Take `Cc1ccc(CNC(=O)c2nc(SCc3ccc(F)cc3)ncc2Cl)cc1`: the inhibition was -6.85%.
Regarding `CCCNC(=O)COc1ncnc2sccc12`, the inhibition is active: 33.1%.
As for `CCCN(CCC)C(=O)Cn1nnc2sc(-c3ccccc3)cc2c1=O`, the inhibition was -6.87%.
The result for `Cc1cc(Br)ccc1OCCCCN1CCC(C)CC1` reads active: 35.1%; that for `O=c1c2cnn(-c3ccc(F)cc3)c2ncn1Cc1cccc(Cl)c1`, 4.82%; that for `CCn1c(=O)c2cc(C(=O)NCCCOC)sc2c2ccccc21`, 7.9%.
Consider `O=C(NC1CCN(Cc2ccccc2)CC1)c1cccc(S(=O)(=O)Nc2ccc(Br)cc2)c1`, for which the inhibition is active: 34.1%.
`Cc1cc(C)n(-c2nc3ccccc3nc2Nc2ccc(Cl)cc2Cl)n1`: the inhibition is 2.14%.
On to `CCC(C)c1ccccc1OCCCNC1CCCC1` (stereo not drawn), for which the inhibition was active: 77.7%.
Take `COc1ccc(CNC(=O)CCC2N=C3c4ccccc4N=C(SCc4cccc(F)c4)N3C2=O)cc1` (stereo not drawn): the inhibition is -5.51%.
Under `CC(=O)N1CCCc2cc(S(=O)(=O)NCc3cccc(C)c3)ccc21` stands -2.63%; under `CCOc1ccc(CCNS(=O)(=O)c2c(C)nc3scc(C)n3c2=O)cc1OCC`, -15.9%; under `CCCn1c2ccccc2c2cnn(CC(=O)N3CCN(c4ccccc4F)CC3)c(=O)c21`, 9.16%.
In the case of `COc1cc(C(=O)NC2CCCc3ccccc32)cc(OC)c1C` (stereo not drawn), the inhibition is active: 55.3%.
With `Cc1ccc(Nc2c(-c3ccc(Cl)cc3)nc3sccn23)c(C)c1`, the inhibition came to 6.04%.
On to `COc1cccc(N2CCN(C(=O)CCCn3c(=O)[nH]c4ccc(Br)cc4c3=O)CC2)c1`, for which the inhibition was -6.07%.
In the case of `CC(C)Oc1cccc(C(=O)Nc2ccc3oc(-c4cccc(Cl)c4)nc3c2)c1`, the inhibition is -2.69%.
On to `CCOc1ccc(CNC(=O)c2ccc3nc(CC)c(CC)nc3c2)cc1`, for which the inhibition is -2.16%.
Regarding `Cc1ccc(C)c(NC(=O)N2CCC(CN3CCOCC3)CC2)c1`, the inhibition was -19.4%.
The result for `CCNc1ccc(-c2nc(-c3ccccn3)no2)cc1[N+](=O)[O-]` reads 16.9%; that for `Cc1cc(NC(=O)COCc2cc(-c3ccc(F)cc3)on2)ccc1Br`, -3.56%.
With `COc1ccc(-c2onc(C)c2C)cc1S(=O)(=O)NCC(C)c1ccccc1` (stereo not drawn), the inhibition is 6.56%.
Take `O=C(CCCCn1c(=O)c2ccccc2n(Cc2ccccc2Cl)c1=O)NCc1ccc2c(c1)OCO2`: the inhibition is -27.7%.
For the compound `Cn1c(=O)c2c(n3c4ccccc4nc13)NC(=O)CC2c1cccc(F)c1` (stereo not drawn), the inhibition is -8.93%.
Turning to `COc1ccc(OC)c(CNS(=O)(=O)c2ccc3[nH]c4c(c3c2)CCCCC4)c1`, the inhibition is -5.78%.
On to `COc1cc(CN2CCN(Cc3ccc(C)cc3)C(CCO)C2)cc(OC)c1O` (stereo not drawn), for which the inhibition is active: 57%.
Regarding `Cc1ccc(NC(=O)CSc2nccn2Cc2ccco2)cc1Cl`, the inhibition amounted to 15.2%.
Regarding `O=c1ccc2cc(S(=O)(=O)NCc3ccc(Br)cc3)ccc2[nH]1`, the inhibition is -7.64%.
The result for `CCC(=O)N1CCc2cc(S(=O)(=O)NC(CC(C)C)C(=O)NCCc3cccc(C)c3)ccc21` (stereo not drawn) reads -3.97%.
On to `Cc1ccc2oc(-c3ccc(Cl)cc3)c(O)c(=O)c2c1`, for which the inhibition was -19.2%.
The result for `CCOc1ccc(-c2nn(-c3ccc(F)cc3)c3c2cnc2ccc(F)cc23)cc1` reads 5.73%; that for `Cc1cc(O)c(C(c2ccccc2)N2CCN(c3ccccc3)CC2)c(=O)n1Cc1ccco1` (stereo not drawn), 0.192%.
Turning to `Cc1cc(NC(=S)NC(=O)c2ccccc2)ccc1-c1cc2ccccc2oc1=O`, the inhibition is active: 63.5%.
Turning to `COc1ccc(-c2c(C)nn3c(-c4ccccc4)cc(C)nc23)cc1OC`, the inhibition was -5.27%.
As to `Cc1cccc(C)c1NC(=O)Cn1cc(C(=O)c2ccco2)c2ccccc21`, the inhibition was found to be 7.63%.
Under `CCc1nc(Nc2ccc(F)c(Cl)c2)c2c3c(sc2n1)CCCC3` stands -12%; under `Cc1cc(C)n(C(C)CC(=O)Nc2cccc(C#N)c2)n1` (stereo not drawn), 8.26%; under `Cc1ccc2c(=O)cc(C(=O)Nc3ccc(S(=O)(=O)N4CCCCC4C)cc3)oc2c1C` (stereo not drawn), -8.4%.
Turning to `CCN(CC)c1ccc(NS(=O)(=O)c2cc(-c3onc(C)c3C)ccc2OC)c(C)c1`, the inhibition turned out to be 8.03%.
As to `CCN(CC)CCCNC(=O)Cn1ncc2c3ccccc3n(Cc3ccccc3)c2c1=O`, the inhibition was -1.64%.
In the case of `COc1cccc(-c2nnc(SCC(=O)N(C)c3ccccc3)o2)c1`, the inhibition was -6.81%.
The result for `CC(=O)Nc1cc(C(=O)NCc2ccc(F)cc2)ccc1S(=O)(=O)c1ccc(C)cc1` reads -2.03%; that for `CN(C)CCn1cnc2c(c1=N)C(c1ccccc1)c1ccc3ccccc3c1O2` (stereo not drawn), active: 61.8%; that for `CCn1c2ccccc2c2cc(CN3CCN(Cc4ccc(Cl)cc4)CC3)ccc21`, 14.9%.
The result for `CCOC(=O)c1ccc(NC(=O)CC2C(=O)N(c3cccc(OC)c3)C(=O)N2Cc2cccnc2)cc1` (stereo not drawn) reads 8.85%; that for `CC(=O)c1ccc(NC(=O)C(C)n2nc(-c3ccccc3)ccc2=O)cc1` (stereo not drawn), 5.29%; that for `CCc1cccc(C)c1NC(=O)CCCn1c(C)c2cnn(-c3ccccc3)c(=O)c2c1C`, 8.16%.
As to `CCOC(=O)c1[nH]c(C)c(CCC(=O)Nc2ccccc2OCC)c1C`, the inhibition is -0.983%.
The result for `CCCCOC(=O)c1ccc(OC(=O)c2sc3ncn(Cc4cccc(F)c4)c(=O)c3c2C)cc1` reads -7.43%; that for `CCC(C)NC(=O)Cn1c(=O)n(CCCCCC(=O)Nc2ccccc2)c(=O)c2sccc21` (stereo not drawn), -21.7%; that for `COc1ccc2c(C)c(CCC(=O)NCCc3ccc(OC)c(OC)c3)c(=O)oc2c1`, 2.74%.
Under `COc1ccc(C(=O)Nc2nnc(SCc3cc(=O)c4cccc(F)c4[nH]3)s2)cc1` stands -16.7%; under `Cn1c(=O)c2c(nc(NCCCCO)n2Cc2ccccc2Cl)n(C)c1=O`, -2.17%.
`O=C(NCCc1ccc(F)cc1)C(=O)NCC(c1cccs1)S(=O)(=O)c1ccc(Cl)cc1` (stereo not drawn): the inhibition was -1.04%.
Turning to `CCS(=O)(=O)N1CC(=O)N(c2ccc(Cl)cc2C)C(C)(C(=O)NC2CCCCC2)C1` (stereo not drawn), the inhibition was 0.947%.
Turning to `O=C(CSc1nnc(-c2ccccc2)c(-c2ccccc2)n1)NCCc1ccccc1`, the inhibition was -12.8%.
Consider `Cc1ccc(C)c(N(C)C(=O)c2cc3c(s2)-c2ccccc2OC3)c1`, for which the inhibition is 1.97%.
